In all, about 310,000 compounds went through this assay and about 2,200 (0.71%) showed an effect of 50% or more. Effects have a minus sign here. The list shows a part of the results.
Each compound was assayed against human ether-à-go-go-related gene (hERG) potassium channel (human, UniProt Q12809) (assay: primary screen, population patch clamp on CHO cells stably expressing hERG).
human ether-à-go-go-related gene (hERG) potassium channel, sequence (Q12809 whole entry, looked up): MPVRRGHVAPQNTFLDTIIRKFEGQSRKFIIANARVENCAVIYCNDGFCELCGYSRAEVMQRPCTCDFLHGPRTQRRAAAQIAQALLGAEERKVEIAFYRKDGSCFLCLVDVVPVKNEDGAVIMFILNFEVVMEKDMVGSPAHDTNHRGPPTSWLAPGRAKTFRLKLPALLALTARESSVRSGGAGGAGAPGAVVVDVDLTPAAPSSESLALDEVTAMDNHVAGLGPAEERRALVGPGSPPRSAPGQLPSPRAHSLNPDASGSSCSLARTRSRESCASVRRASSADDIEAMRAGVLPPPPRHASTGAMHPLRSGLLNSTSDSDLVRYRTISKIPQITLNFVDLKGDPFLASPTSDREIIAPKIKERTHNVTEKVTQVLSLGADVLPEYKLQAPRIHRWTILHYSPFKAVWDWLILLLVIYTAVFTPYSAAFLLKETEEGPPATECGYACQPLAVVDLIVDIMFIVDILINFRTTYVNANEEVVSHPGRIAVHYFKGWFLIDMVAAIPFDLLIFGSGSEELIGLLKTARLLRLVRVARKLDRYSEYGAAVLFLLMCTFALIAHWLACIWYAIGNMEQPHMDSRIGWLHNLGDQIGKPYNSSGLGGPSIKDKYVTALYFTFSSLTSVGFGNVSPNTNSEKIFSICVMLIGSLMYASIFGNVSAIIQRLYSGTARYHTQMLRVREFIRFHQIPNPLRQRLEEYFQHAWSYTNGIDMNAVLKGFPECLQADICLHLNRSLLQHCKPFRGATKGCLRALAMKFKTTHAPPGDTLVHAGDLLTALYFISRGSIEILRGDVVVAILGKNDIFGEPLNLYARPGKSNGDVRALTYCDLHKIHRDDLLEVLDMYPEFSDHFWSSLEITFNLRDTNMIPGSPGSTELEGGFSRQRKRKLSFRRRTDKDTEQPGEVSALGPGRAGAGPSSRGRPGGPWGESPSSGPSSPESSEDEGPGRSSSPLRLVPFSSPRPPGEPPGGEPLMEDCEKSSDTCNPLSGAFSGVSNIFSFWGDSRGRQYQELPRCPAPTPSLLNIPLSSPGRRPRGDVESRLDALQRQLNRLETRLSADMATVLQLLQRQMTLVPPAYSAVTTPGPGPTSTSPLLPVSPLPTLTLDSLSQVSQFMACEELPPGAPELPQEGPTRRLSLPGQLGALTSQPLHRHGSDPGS

SMILES	hERG current change (%, negative = inhibition) at 1uM [%]
Cc1ccccc1OCC(=O)Nc1ccc2c(c1)OCCO2	0.568
O=C(c1cc(-c2ccc(Br)cc2)on1)N1CCOCC1	10.8
Cc1c(N2C(=O)CSC23C(=O)Nc2ccccc23)c(=O)n(-c2ccccc2)n1C (stereo not drawn)	10.9
COc1cc([N+](=O)[O-])cc2sc(NC(=O)C3CC3)nc12	11.3
CCCn1c(N2CCN(CC(=O)c3c[nH]c4ccccc34)CC2)nc2c1c(=O)[nH]c(=O)n2C	9.82
CCCOc1ccc(-c2c(C(=O)N/N=C/c3cccnc3)nnn2-c2nonc2N)cc1	7.08
FC(F)(F)c1cc(NCc2cccs2)n2ncnc2n1	5.9
CCN(CC)C(=O)c1ccc(N2C(=O)C3CC=C(Cl)CC3C2=O)cc1 (stereo not drawn)	17.4
O=C(Nc1ccccc1)c1c2c(nc3ccccc13)CCCC2	7.4
O=C(CCN1C(=O)C2C3C=CC(C4CC34)C2C1=O)Oc1cccc2cccnc12 (stereo not drawn)	2.35
Cc1noc(C(=O)N2CCN(c3ccccc3)CC2)c1Cl	11.4
CCOC(=O)c1ccc(NC(=O)c2cc(C)nc3ccccc23)cc1	14.9
CC1CN(C(=O)c2cc3ccccc3oc2=O)CC(C)O1 (stereo not drawn)	-4.51
CCn1c(SCc2ccc(C#N)cc2)nnc1-c1cccc(Cl)c1	-35.8
CC1(C)CC(=O)C(C=NCCN2CCN(C3CC(=O)N(c4ccc(Cl)c(Cl)c4)C3=O)CC2)=C(O)C1 (stereo not drawn)	-1.47
CCOC(=O)N1CCC(N(CCN(C)C)C(=S)Nc2cc(Cl)cc(Cl)c2)CC1	8.64
CC(=O)NCCC(=O)NCC1(N(C)Cc2ccccc2)Cc2ccccc2C1	17.6
CC(COc1ccc(C(C)C)cc1)NC(=O)c1ccc(Br)o1 (stereo not drawn)	5.58
Cc1c(CC(=O)NCC(=O)O)c(=O)oc2cc3c(cc12)CCC(C)(C)O3	9.94
CCCCNC(=O)C(=O)NCC1CCCN1S(=O)(=O)c1cccs1 (stereo not drawn)	5.32
CC(C)C(C(=O)NCC1CCCO1)N(Cc1ccco1)C(=O)CNS(=O)(=O)c1ccc(F)cc1 (stereo not drawn)	-6.77
CCOC(=O)N1CCN(C(=O)Nc2ccc3oc(C)nc3c2)CC1	10.9

SMILES	hERG current change (%, negative = inhibition) at 1uM [%]
N#Cc1cc([N+](=O)[O-])ccc1NC(=O)COC(=O)CCC1CCCCC1	15.8
COc1ccc(Nc2ccc(Nc3ccc(OC)cc3)nn2)cc1	13.9
N#Cc1ccc(NC(=O)Cn2cnc(S(=O)(=O)N3CCc4ccccc43)c2)cc1	8.39
COc1ccc(C2(C)NC(=O)N(Cc3cc(Cl)cc4c3OCOC4)C2=O)cc1OC (stereo not drawn)	11.7
CCCCC(=O)NC(c1ccccc1OC)c1ccc2cccnc2c1O (stereo not drawn)	-0.281
Cc1ccc(Oc2nc3ccccc3n3c(C)nnc23)cc1	14.5
CC(=O)Oc1ccccc1C(=O)Oc1ccc(/C=N/n2cnnc2)cc1	2.63
CC(Sc1n[nH]c(-c2ccccc2F)n1)C(=O)Nc1ccc(S(N)(=O)=O)cc1 (stereo not drawn)	15.1
O=[N+]([O-])c1ccc2c(c1)S(=O)c1ccccc1-2 (stereo not drawn)	13.9
O=C(NCC(=O)N(c1ccc(Cl)cc1)C(C(=O)NC1CCCC1)c1cccnc1)c1ccco1 (stereo not drawn)	16.6
COc1ccc(/C=N/n2cnc3c(sc(=S)n3-c3ccccc3)c2=O)cc1	11.5
O=c1[nH]c(C2CCCN(S(=O)(=O)c3ccccc3)C2)nc2c1nnn2Cc1ccccc1 (stereo not drawn)	6.49
CN1C(=O)C(CC(=O)NCCc2ccccc2)N(NC(=O)c2ccc(Cl)cc2)C1=S (stereo not drawn)	9.39
Cc1occc1C(=O)N1CCN(c2ccc(Cl)c(Cl)c2)CC1	7.41
C/C(CC(=O)NCc1ccco1)=N\NC(=O)COc1ccc(C)cc1	4.8
CC(=O)N1CCN(S(=O)(=O)c2cccc(C(=O)NC3CCCc4ccccc43)c2)CC1 (stereo not drawn)	5.03
CC1=C(C(=O)OCc2ccccc2)C(c2ccc3c(c2)OCO3)NC(=O)N1CCCC(=O)O (stereo not drawn)	13.6
O=S1(=O)CCC(NC(=S)NCCNC(=S)NC2CCS(=O)(=O)C2)C1 (stereo not drawn)	2.54
CN1CC2(Cc3c1ccc1ccccc31)C(=O)OC(C)(C)OC2=O	8.53
CC(C)C1/C(=N/O)CC(c2ccccc2)NC1c1ccccc1 (stereo not drawn)	9.65
O=C(NCCCl)Nc1cccnc1Cl	11
CCOC(=O)c1ccc(NC(=S)N2CCN(CCN=CC3=C(O)CC(c4ccccc4)CC3=O)CC2)cc1 (stereo not drawn)	8.25

SMILES	hERG current change (%, negative = inhibition) at 1uM [%]
COc1ccc(NC(=O)Nc2ccccc2F)cc1Cl	15
COc1cc(C(=S)N2CCC(Cc3ccccc3)CC2)ccc1OCC(N)=O	3.73
Cc1cc(C)cc(NC(=O)N2C3CCCC2CC(NC(=O)C2CC2)C3)c1 (stereo not drawn)	11.3
Cc1ccc(S(=O)(=O)NC(=O)c2ccccc2C)cc1	17
COC(=O)c1ccc(Sc2ccccc2NS(=O)(=O)c2ccc(C)cc2)nc1	6.89
Cc1ccc(S(=O)(=O)N2CCCC2C(=O)NCc2ccc3c(c2)OCO3)cc1 (stereo not drawn)	8.35
Cc1ccc(NC(=O)CN2C(=O)N/C(=C/c3ccc4c(c3)OCCO4)C2=O)cc1	14.8
O=Cc1cc(CCC(=O)O)ccc1O	9.13
O=C(N/N=C/c1ccc(Cl)cc1)c1ccc2c(c1)OCO2	10.9
Cc1ccc2c(c1)=C(c1ccccc1)N(O)CC(=O)N=2	18.8
O=C(CNS(=O)(=O)c1ccc(Cl)cc1)NNC(=O)c1cccnc1	10
Cc1ccc(S(=O)(=O)N2CCC(=O)N(C(COC(=O)Nc3ccccc3)Cc3ccccc3)CC2)cc1 (stereo not drawn)	14.7
COc1ccc2c(C)c(CCC(=O)NCCCN3CCCC3=O)c(=O)oc2c1C	1.59
O=C(Nc1cnn(Cc2ccccc2)c1)c1cc2nc(-c3ccco3)cc(C(F)(F)F)n2n1	6.86
CCOc1cc(C(=O)Nc2ncccn2)cc(OCC)c1OCC	8.97
CCCOc1ccc(C(=O)Nc2ccc(NC(=O)c3cccs3)cc2)cc1	14
O=C(Nc1cccc(F)c1)N1CCN(C/C=C/c2ccccc2)CC1	-19.1
O=C(Nc1ncc(Cc2ccccc2Cl)s1)c1ccc(-c2cccc([N+](=O)[O-])c2)o1	10.7
COc1ccccc1C1C2=C(CC(C)(C)CC2=O)Nc2nnnn21 (stereo not drawn)	19.7
CCOc1ccccc1Nc1ncccc1C(=O)N1CCCC1	16.9
CC(=O)Oc1cccc(C(=O)Nc2ccc3c(c2)C(=O)N(CC2CCCO2)C3=O)c1 (stereo not drawn)	8.31
CCN(C1CCCCC1)S(=O)(=O)c1cc(C)ccc1OC	13.4

SMILES	hERG current change (%, negative = inhibition) at 1uM [%]
Cc1ccc(S(N)(=O)=O)cc1NC(=O)c1ccc2c3c(cccc13)CC2	1.81
COc1cccc(CN(C)C(=O)c2csc3c2CCCC3)c1OC	2.1
Cc1c(-n2c(-c3ccccc3Cl)n[nH]c2=S)c(=O)n(-c2ccccc2)n1C	14.1
Clc1c2c(nc3ccccc13)CCC2	9.54
C=C(C)CSc1nnc(-c2ccc(C)cc2)n1N	11.3
O=C(c1ccco1)N1CCN(c2ccc(Cl)cc2)CC1	-5.03
O=C(Nn1cc(C(=O)Nc2ccc(F)cc2F)c2ccccc2c1=O)c1cnccn1	12.8
COCCCNC(=O)CN(CCc1ccccc1)S(=O)(=O)c1ccc(OC)cc1	-2.55
COc1ccccc1/C=C/C(=O)OC(C)CN1CCCCC1.Cl (stereo not drawn)	12.9
O=C(CN(c1ccc([N+](=O)[O-])cc1)S(=O)(=O)c1ccccc1)N1CCCCC1	-0.85
CN(CC(=O)Nc1ccc2c(c1)OCO2)S(=O)(=O)c1cccs1	3.55
Cc1nn(Cc2ccccc2)c(C)c1C=C1C(=O)NC(=S)NC1=O	9.9
Cc1c(S(=O)(=O)Nc2cccc3ccccc23)c(=O)n(C)c(=O)n1C	13.2
O=C(O)C(Cl)Cl	13.9
CC(=O)N1CCOc2ccc(S(=O)(=O)N3CCN(c4cccc(C(F)(F)F)c4)CC3)cc21	11
Cc1ccc2c(c1)CCCN2C(=O)c1cc(C)on1	10.3
Cc1ccc(-c2ccc(CCC(=O)O)n2Cc2ccco2)cc1	12
COc1cccc(CNC(=O)CCC2CCCN(C(=O)c3ccccc3N(C)C)C2)c1 (stereo not drawn)	15.9
CC1CCN(S(=O)(=O)c2ccc3c(c2)oc(=O)n3CC(=O)NCc2ccc3c(c2)OCO3)CC1	3.17
Cc1cc(C)cc(OCC(=O)N(C)CC(=O)Nc2ccc(Cl)c(C(F)(F)F)c2)c1	4.18
COc1ccccc1N1C(=N)S/C(=C\c2ccc(-c3ccccc3C(=O)O)o2)C1=O	2.83

Source: PMC4336329 (PLoS ONE, 2015)
